Laboratory results from ChEMBL document CHEMBL5634115, “Exploring novel anticancer pyrazole benzenesulfonamides featuring tail approach strategy as carbonic anhydrase inhibitors” (Eur J Med Chem, 2023).

How the values were obtained:
[1] = system: IGROV-1; experiment: cells; format: functional; conditions: Homo sapiens, time 48 hrs
[2] = system: T47D; experiment: cells; format: functional; conditions: Homo sapiens, time 48 hrs
[3] = system: HCC 2998; experiment: cells; conditions: Homo sapiens, HCC 2998, 48 h, read-out: LC50
[4] = system: CCRF-CEM; experiment: cells; format: functional; conditions: Homo sapiens, time 48 hrs
[5] = system: SK-MEL-2; experiment: cells; conditions: Homo sapiens, SK-MEL-2, 48 h, read-out: LC50
[6] = system: HT-29; experiment: cells; format: functional; conditions: Homo sapiens, time 48 hrs
[7] = system: Malme-3M; experiment: cells; conditions: Homo sapiens, 48 h, read-out: LC50
[8] = system: SF-268; experiment: cells; format: functional; conditions: Homo sapiens, time 48 hrs
[9] = system: T47D; experiment: cells; format: functional; conditions: Homo sapiens, time 48 hrs; remark: listed apart in the source
[10] = system: NCI-H23; experiment: cells; conditions: Homo sapiens, NCI-H23, 48 h, read-out: LC50
[11] = system: MDA-MB-435; experiment: cells; format: functional; conditions: Homo sapiens, time 48 hrs
[12] = system: ACHN; experiment: cells; conditions: Homo sapiens, 48 h, read-out: LC50
[13] = system: SK-MEL-28; experiment: cells; format: functional; conditions: Homo sapiens, time 48 hrs
[14] = system: HT-29; experiment: cells; format: functional; conditions: Homo sapiens, time 48 hrs; remark: listed apart in the source
[15] = system: SF-268; experiment: cells; conditions: Homo sapiens, SF-268, 48 h, read-out: LC50
[16] = system: 786-0; experiment: cells; format: functional; conditions: Homo sapiens, time 48 hrs
[17] = system: A549; experiment: cells; format: functional; conditions: Homo sapiens, time 48 hrs
[18] = system: SNB-75; experiment: cells; format: functional; conditions: Homo sapiens, time 48 hrs
[19] = system: LOX IMVI; experiment: cells; conditions: Homo sapiens, 48 h, read-out: LC50
[20] = target: Carbonic anhydrase 12 (Homo sapiens, UniProt O43570)
Chain of Carbonic anhydrase 12 (O43570 whole entry): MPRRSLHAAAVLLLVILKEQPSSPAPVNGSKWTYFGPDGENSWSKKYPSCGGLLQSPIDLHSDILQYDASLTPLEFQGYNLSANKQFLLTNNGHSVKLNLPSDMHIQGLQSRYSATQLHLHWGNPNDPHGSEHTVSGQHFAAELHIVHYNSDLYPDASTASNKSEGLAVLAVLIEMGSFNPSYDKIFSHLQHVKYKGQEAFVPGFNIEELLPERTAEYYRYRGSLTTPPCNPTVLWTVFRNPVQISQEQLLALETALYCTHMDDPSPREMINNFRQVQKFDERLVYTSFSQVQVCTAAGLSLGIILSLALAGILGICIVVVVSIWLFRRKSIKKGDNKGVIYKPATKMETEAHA

[21] = system: HOP-92; experiment: cells; format: functional; conditions: Homo sapiens, time 48 hrs
[22] = system: SK-OV-3; experiment: cells; format: functional; conditions: Homo sapiens, time 48 hrs
[23] = system: HOP-62; experiment: cells; conditions: Homo sapiens, HOP-62, 48 h, read-out: LC50
[24] = system: SF-295; experiment: cells; conditions: Homo sapiens, SF-295, 48 h, read-out: LC50
[25] = system: HL-60(TB); experiment: cells; conditions: Homo sapiens, HL-60, 48 h, read-out: LC50
[26] = system: MDA-MB-468; experiment: cells; format: functional; conditions: Homo sapiens, time 48 hrs
[27] = system: A549; experiment: cells; format: functional; conditions: Homo sapiens, time 48 hrs; remark: listed apart in the source
[28] = system: K562; experiment: cells; conditions: Homo sapiens, K562, 48 h, read-out: LC50
[29] = system: SF-539; experiment: cells; conditions: Homo sapiens, SF-539, 48 h, read-out: LC50
[30] = system: OVCAR-3; experiment: cells; format: functional; conditions: Homo sapiens, time 48 hrs
[31] = system: EKVX; experiment: cells; conditions: Homo sapiens, 48 h, read-out: LC50
[32] = system: U-251; experiment: cells; conditions: Homo sapiens, U-251, 48 h, read-out: LC50
[33] = system: UACC-257; experiment: cells; format: functional; conditions: Homo sapiens, time 48 hrs
[34] = system: MDA-MB-435; experiment: cells; conditions: Homo sapiens, MDA-MB-435, 48 h, read-out: LC50
[35] = system: UACC-257; experiment: cells; format: functional; conditions: Homo sapiens, time 48 hrs; remark: listed apart in the source
[36] = system: MCF7; experiment: cells; conditions: Homo sapiens, MCF7, 48 h, read-out: LC50
[37] = system: KM12; experiment: cells; conditions: Homo sapiens, KM12, 48 h, read-out: LC50
[38] = system: NCI-H460; experiment: cells; format: functional; conditions: Homo sapiens, time 48 hrs
[39] = system: SK-MEL-28; experiment: cells; conditions: Homo sapiens, SK-MEL-28, 48 h, read-out: LC50
[40] = system: HCT-116; experiment: cells; conditions: Homo sapiens, HCT-116, 48 h, read-out: LC50
[41] = system: OVCAR-4; experiment: cells; format: functional; conditions: Homo sapiens, time 48 hrs
[42] = system: Panel NCI-60 (60 carcinoma cell lines); experiment: cells; conditions: Homo sapiens, 48 h, read-out: GI
[43] = system: 786-0; experiment: cells; conditions: Homo sapiens, 786-0, 48 h, read-out: LC50
[44] = system: OVCAR-8; experiment: cells; conditions: Homo sapiens, OVCAR-8, 48 h, read-out: LC50
[45] = system: MCF7; experiment: cells; format: functional; conditions: Homo sapiens, time 48 hrs
[46] = system: HCT-15; experiment: cells; conditions: Homo sapiens, HCT-15, 48 h, read-out: LC50
[47] = system: OVCAR-3; experiment: cells; format: functional; conditions: Homo sapiens, time 48 hrs; remark: listed apart in the source
[48] = system: CCRF-CEM; experiment: cells; format: functional; conditions: Homo sapiens, time 48 hrs; remark: listed apart in the source
[49] = system: HCT-15; experiment: cells; format: functional; conditions: Homo sapiens, time 48 hrs
[50] = system: IGROV-1; experiment: cells; format: functional; conditions: Homo sapiens, time 48 hrs; remark: listed apart in the source
[51] = system: MOLT-4; experiment: cells; conditions: Homo sapiens, MOLT-4, 48 h, read-out: LC50
[52] = system: NCI-H522; experiment: cells; conditions: Homo sapiens, NCI-H522, 48 h, read-out: LC50

## NS(=O)(=O)c1ccc(-n2cc(/C=N/Nc3ccc(C(=O)O)cc3)c(-c3ccccc3)n2)cc1
[1]
  TGI: 21.3 µM
[2]
  GI50: 5.99 µM
[3]
  CC50: 9.8 µM
[4]
  GI50: 3.42 µM
[5]
  CC50: 38.1 µM
[6]
  TGI: 15.7 µM
[7]
  CC50: 45.1 µM
[8]
  GI50: 3.07 µM
[9]
  TGI: > 100 µM
[10]
  CC50: 68.2 µM
[11]
  GI50: 2.21 µM
[12]
  CC50: > 100 µM
[13]
  GI50: 4.53 µM
[14]
  GI50: 4.25 µM
[15]
  CC50: > 100 µM
[16]
  TGI: 7.21 µM
[17]
  TGI: > 100 µM
[18]
  GI50: 4.54 µM
[19]
  CC50: 5.57 µM
[20]
  IC50: 0.247 µM
[21]
  TGI: 31.3 µM
[22]
  TGI: 99.7 µM
[23]
  CC50: > 100 µM
[24]
  CC50: 74.6 µM
[25]
  CC50: > 100 µM
[26]
  GI50: 2.49 µM
[27]
  GI50: 3.79 µM
[28]
  CC50: > 100 µM
[29]
  CC50: 8.75 µM
[30]
  TGI: 4.73 µM
[31]
  CC50: > 100 µM
[32]
  CC50: > 100 µM
[33]
  TGI: 31.4 µM
[34]
  CC50: 17.9 µM
[35]
  GI50: 14.1 µM
[36]
  CC50: > 100 µM
[37]
  CC50: 7.64 µM
[38]
  TGI: 6.03 µM
[39]
  CC50: 49.1 µM
[40]
  CC50: 55.4 µM
[41]
  GI50: 7.35 µM
[42]
  inhibition of growth at 10 µM: 26%
[43]
  CC50: > 100 µM
[44]
  CC50: > 100 µM
[45]
  GI50: 2.1 µM
[46]
  CC50: 8.18 µM
[47]
  GI50: 1.93 µM
[48]
  TGI: 19.2 µM
[49]
  GI50: 1.78 µM
[50]
  GI50: 5.06 µM
[51]
  CC50: > 100 µM

## CCOC(=O)c1ccc(N/N=C/c2cn(-c3ccc(S(N)(=O)=O)cc3)nc2-c2ccc(OC)cc2)cc1
[1]
  TGI: 55.7 µM
[2]
  GI50: 3.64 µM
[3]
  CC50: 9.45 µM
[4]
  GI50: 3.03 µM
[5]
  CC50: > 100 µM
[6]
  TGI: 13.6 µM
[7]
  CC50: 74.4 µM
[8]
  GI50: 4.03 µM
[52]
  CC50: > 100 µM
[9]
  TGI: > 100 µM
[10]
  CC50: > 100 µM
[11]
  GI50: 2.34 µM
[12]
  CC50: > 100 µM
[13]
  GI50: 4.78 µM
[14]
  GI50: 3.51 µM
[15]
  CC50: > 100 µM
[16]
  TGI: 4.92 µM
[17]
  TGI: > 100 µM
[18]
  GI50: 2.76 µM
[20]
  IC50: 1.96 µM
[21]
  TGI: 14.4 µM
[22]
  TGI: > 100 µM
[23]
  CC50: > 100 µM
[24]
  CC50: 62.9 µM
[25]
  CC50: > 100 µM
[26]
  GI50: 2.32 µM
[27]
  GI50: 3.58 µM
[28]
  CC50: > 100 µM
[29]
  CC50: 7.89 µM
[30]
  TGI: 5.55 µM
[31]
  CC50: > 100 µM
[32]
  CC50: > 100 µM
[34]
  CC50: > 100 µM
[35]
  GI50: 12.3 µM
[36]
  CC50: > 100 µM
[38]
  TGI: 7.39 µM
[39]
  CC50: > 100 µM
[40]
  CC50: > 100 µM
[41]
  GI50: 6.37 µM
[43]
  CC50: 47.3 µM
[44]
  CC50: > 100 µM
[45]
  GI50: 2.13 µM
[46]
  CC50: > 100 µM
[47]
  GI50: 2.4 µM
[48]
  TGI: 11.7 µM
[49]
  GI50: 2.5 µM
[50]
  GI50: 4.56 µM
[51]
  CC50: > 100 µM

## CCOC(=O)c1ccc(N/N=C/c2cn(-c3ccc(S(N)(=O)=O)cc3)nc2-c2ccccc2)cc1
[1]
  TGI: 13.9 µM
[2]
  GI50: 3.07 µM
[3]
  CC50: 7.01 µM
[4]
  GI50: 2.85 µM
[5]
  CC50: 37.4 µM
[6]
  TGI: 5.13 µM
[7]
  CC50: 14.7 µM
[8]
  GI50: 2.63 µM
[52]
  CC50: > 100 µM
[9]
  TGI: 21.2 µM
[10]
  CC50: 45.2 µM
[11]
  GI50: 2.03 µM
[12]
  CC50: > 100 µM
[13]
  GI50: 2.57 µM
[14]
  GI50: 2.18 µM
[15]
  CC50: > 100 µM
[16]
  TGI: 4.52 µM
[17]
  TGI: > 100 µM
[18]
  GI50: 2.32 µM
[19]
  CC50: 5.45 µM
[20]
  IC50: 0.885 µM
[21]
  TGI: 7.02 µM
[22]
  TGI: 54.9 µM
[23]
  CC50: 80.4 µM
[24]
  CC50: 23.8 µM
[25]
  CC50: > 100 µM
[26]
  GI50: 1.81 µM
[27]
  GI50: 3.15 µM
[28]
  CC50: > 100 µM
[29]
  CC50: 7.03 µM
[30]
  TGI: 5.02 µM
[31]
  CC50: > 100 µM
[32]
  CC50: 9.69 µM
[33]
  TGI: 2.07 µM
[34]
  CC50: 9.44 µM
[35]
  GI50: 5.4 µM
[36]
  CC50: > 100 µM
[37]
  CC50: 7.78 µM
[38]
  TGI: 5.22 µM
[39]
  CC50: 43.6 µM
[40]
  CC50: 51.5 µM
[41]
  GI50: 4.23 µM
[42]
  inhibition of growth at 10 µM: > 100%
[44]
  CC50: > 100 µM
[45]
  GI50: 2.1 µM
[46]
  CC50: 6.86 µM
[47]
  GI50: 2.2 µM
[48]
  TGI: 9.81 µM
[49]
  GI50: 1.57 µM
[50]
  GI50: 3.42 µM
[51]
  CC50: > 100 µM
